Experimental data from the supplement of paper PMC10369915.
The list shows a part of the results. Rule as the data show it: active = 3.2 or more and inactive = the rest. Most of these values are background signal.

B1: CHST4_Y359_H361Q (peptide)
chain: MNLLGYRQVRS
B2: CHKB_Y381 (peptide)
chain: SRFQFYFQQKG
B3: CFTR_Y517_D513G (peptide)
chain: YGEYRYRSVIK
B4: CFTR_Y515_D513G (peptide)
chain: VSYGEYRYRSV
B5: CHKB_Y381_R377L (peptide)
chain: SLFQFYFQQKG
B6: CFAP58_Y501_S496T (peptide)
chain: TDRNLYSKNLV
B7: CFTR_Y517_V520F_YF (peptide)
chain: FDEFRYRSFIK
B8: CFTR_Y515 (peptide)
chain: VSYDEYRYRSV
B9: CFTR_Y512_YF (peptide)
chain: IFGVSYDEFRF
B10: CHD7_Y1217 (peptide)
chain: NIQKKYYRAIL
B11: CHN1_Y148_Y143H (peptide)
chain: HEHVGYTTLNR
B12: CFI_Y421_I416L (peptide)
chain: LFHENYNAGTY
B13: CFTR_Y512_I507V (peptide)
chain: VFGVSYDEYRY
B14: CHD7_Y75_Y72C (peptide)
chain: DHCNQYEQQKM
B15: CHD7_Y1256_C1251R (peptide)
chain: RCNHPYLINGA
B16: CHL1_Y291 (peptide)
chain: ETKENYGKTLK
B17: CHD7_Y1217_Q1214R (peptide)
chain: NIRKKYYRAIL
B18: CFTR_Y517_YF (peptide)
chain: FDEFRYRSVIK
B19: CHN1_Y143_Y143H (peptide)
chain: TINPIHEHVGY
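Also: displayed peptides selected on beads carrying the immobilized SH2 domain, with library peptides lacking any tyrosine serving as negative controls.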

Each binder was assayed against SHP2 C-SH2 domain E139D (assay: enrichment score (SH2-bound / input frequency) (ratio); bacterial display of known human phosphotyrosine sites (pTyr-Var adds point mutants) read by sequencing; higher = stronger binding; tyrosines were phosphorylated by kinases first). Conditions: peptide library: pTyr-Var.
B1 was tested, and the enrichment score was inactive: 0.492.
With B2 the enrichment score was inactive: 0.723.
B3 was tested, and the enrichment score was inactive: 0.831.
B4 was tested, and the enrichment score was inactive: 0.623.
B5 was tested, and the enrichment score was active: 3.93.
With B6 the enrichment score was inactive: 0.583.
B7 was tested, and the enrichment score was inactive: 0.756.
With B8 the enrichment score was inactive: 0.754.
In the case of B9, the enrichment score is reported as inactive: 1.41.
In the case of B10, the enrichment score is reported as inactive: 1.12.
B11 was tested, and the enrichment score was active: 3.7.
B12 was tested, and the enrichment score was inactive: 0.747.
With B13 the enrichment score was inactive: 1.01.
For B14, the enrichment score was inactive: 0.868.
With B15 the enrichment score was inactive: 1.68.
B16 was tested, and the enrichment score was inactive: 0.454.
B17 was tested, and the enrichment score was inactive: 0.435.
For B18, the enrichment score was inactive: 0.689.
With B19 the enrichment score was inactive: 1.08.

Each binder was assayed against SHP2 C-SH2 domain wild-type in the same assay as above. Conditions: peptide library: pTyr-Var.
In the case of B1, the enrichment score is reported as inactive: 0.502.
In the case of B2, the enrichment score is reported as inactive: 0.806.
B3 was tested, and the enrichment score was inactive: 0.764.
For B4, the enrichment score was inactive: 0.813.
With B5 the enrichment score was active: 3.56.
In the case of B6, the enrichment score is reported as inactive: 0.625.
With B7 the enrichment score was inactive: 0.682.
In the case of B8, the enrichment score is reported as inactive: 0.565.
B9 was tested, and the enrichment score was inactive: 1.03.
In the case of B10, the enrichment score is reported as inactive: 0.761.
With B11 the enrichment score was active: 7.33.
B12 was tested, and the enrichment score was inactive: 0.887.
In the case of B13, the enrichment score is reported as inactive: 0.857.
For B14, the enrichment score was inactive: 0.781.
With B15 the enrichment score was inactive: 1.72.
For B16, the enrichment score was inactive: 0.328.
B17 was tested, and the enrichment score was inactive: 0.304.
In the case of B18, the enrichment score is reported as inactive: 0.56.
For B19, the enrichment score was inactive: 1.05.

What follows are binders tested against SHP2 N-SH2 domain L43F in the same assay as above. Conditions: peptide library: pTyr-Var.
For B1, the enrichment score was inactive: 0.426.
With B2 the enrichment score was inactive: 0.938.
In the case of B3, the enrichment score is reported as inactive: 0.781.
B4 was tested, and the enrichment score was inactive: 0.732.
In the case of B5, the enrichment score is reported as active: 3.96.
For B6, the enrichment score was inactive: 0.521.
With B7 the enrichment score was inactive: 0.627.
With B8 the enrichment score was inactive: 0.602.
In the case of B9, the enrichment score is reported as inactive: 0.943.
For B10, the enrichment score was inactive: 0.95.
B11 was tested, and the enrichment score was inactive: 1.29.
In the case of B12, the enrichment score is reported as inactive: 1.06.
B13 was tested, and the enrichment score was inactive: 1.06.
In the case of B14, the enrichment score is reported as inactive: 0.792.
With B15 the enrichment score was inactive: 1.67.
In the case of B16, the enrichment score is reported as inactive: 0.713.
For B17, the enrichment score was inactive: 0.412.
B18 was tested, and the enrichment score was inactive: 0.475.
In the case of B19, the enrichment score is reported as inactive: 1.17.

What follows are binders tested against SHP2 N-SH2 domain T42A in the same assay as above. Conditions: peptide library: pTyr-Var.
With B1 the enrichment score was inactive: 0.331.
In the case of B2, the enrichment score is reported as inactive: 0.792.
In the case of B3, the enrichment score is reported as inactive: 0.694.
With B4 the enrichment score was inactive: 0.531.
For B5, the enrichment score was active: 3.3.
With B6 the enrichment score was inactive: 0.57.
In the case of B7, the enrichment score is reported as inactive: 0.595.
With B8 the enrichment score was inactive: 0.663.
In the case of B9, the enrichment score is reported as inactive: 1.55.
B10 was tested, and the enrichment score was inactive: 1.01.
With B11 the enrichment score was inactive: 2.66.
B12 was tested, and the enrichment score was inactive: 1.01.
In the case of B13, the enrichment score is reported as inactive: 1.09.
In the case of B14, the enrichment score is reported as inactive: 0.737.
With B15 the enrichment score was inactive: 1.26.
For B16, the enrichment score was inactive: 0.295.
With B17 the enrichment score was inactive: 0.331.
B18 was tested, and the enrichment score was inactive: 0.595.
For B19, the enrichment score was inactive: 0.911.

Each binder was assayed against SHP2 N-SH2 domain T52S in the same assay as above. Conditions: peptide library: pTyr-Var.
In the case of B1, the enrichment score is reported as inactive: 0.423.
B2 was tested, and the enrichment score was inactive: 0.727.
B3 was tested, and the enrichment score was inactive: 0.744.
In the case of B4, the enrichment score is reported as inactive: 0.505.
In the case of B5, the enrichment score is reported as active: 3.45.
For B6, the enrichment score was inactive: 0.627.
For B7, the enrichment score was inactive: 0.6.
For B8, the enrichment score was inactive: 0.56.
In the case of B9, the enrichment score is reported as inactive: 1.34.
B10 was tested, and the enrichment score was inactive: 0.764.
For B11, the enrichment score was inactive: 1.24.
B12 was tested, and the enrichment score was inactive: 0.93.
With B13 the enrichment score was inactive: 1.23.
B14 was tested, and the enrichment score was inactive: 0.917.
With B15 the enrichment score was inactive: 1.58.
For B16, the enrichment score was inactive: 0.326.
For B17, the enrichment score was inactive: 0.295.
In the case of B18, the enrichment score is reported as inactive: 0.469.
B19 was tested, and the enrichment score was inactive: 1.08.

The binders below were run against SHP2 N-SH2 domain wild-type in the same assay as above. Conditions: peptide library: pTyr-Var.
B1 was tested, and the enrichment score was inactive: 0.566.
For B2, the enrichment score was inactive: 0.719.
For B3, the enrichment score was inactive: 0.78.
B4 was tested, and the enrichment score was inactive: 0.704.
In the case of B5, the enrichment score is reported as active: 3.88.
With B6 the enrichment score was inactive: 0.777.
B7 was tested, and the enrichment score was inactive: 0.473.
With B8 the enrichment score was inactive: 0.683.
For B9, the enrichment score was inactive: 0.875.
With B10 the enrichment score was inactive: 1.24.
In the case of B11, the enrichment score is reported as inactive: 1.5.
B12 was tested, and the enrichment score was inactive: 1.2.
With B13 the enrichment score was inactive: 1.09.
With B14 the enrichment score was inactive: 0.841.
B15 was tested, and the enrichment score was inactive: 1.6.
In the case of B16, the enrichment score is reported as inactive: 0.56.
In the case of B17, the enrichment score is reported as inactive: 0.511.
B18 was tested, and the enrichment score was inactive: 0.645.
In the case of B19, the enrichment score is reported as inactive: 1.19.
